Results taken from article PMC8463077.
Results are given in words; binding and its absence hold for the method and conditions named. For some assays here: In cells and extracts the contact can be indirect. Some binding calls cover weakened binding; strength is not graded here. Blank lines part the entries; values can stand above or below the substance they belong to.

Protein sequences, listed by entry. Tags and fused reporters are not part of them.
UniProt Q9GZV5: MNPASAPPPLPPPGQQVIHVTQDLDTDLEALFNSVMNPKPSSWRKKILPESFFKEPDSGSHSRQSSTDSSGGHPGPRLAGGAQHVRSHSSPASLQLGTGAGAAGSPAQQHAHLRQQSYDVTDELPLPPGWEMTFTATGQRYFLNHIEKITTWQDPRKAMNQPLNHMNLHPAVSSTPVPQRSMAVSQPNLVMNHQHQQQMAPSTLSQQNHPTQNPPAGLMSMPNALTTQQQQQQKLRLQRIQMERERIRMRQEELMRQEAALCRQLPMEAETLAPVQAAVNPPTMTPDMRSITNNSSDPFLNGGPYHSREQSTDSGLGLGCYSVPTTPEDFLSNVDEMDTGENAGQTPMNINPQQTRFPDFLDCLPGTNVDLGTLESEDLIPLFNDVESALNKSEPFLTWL
UniProt P46937: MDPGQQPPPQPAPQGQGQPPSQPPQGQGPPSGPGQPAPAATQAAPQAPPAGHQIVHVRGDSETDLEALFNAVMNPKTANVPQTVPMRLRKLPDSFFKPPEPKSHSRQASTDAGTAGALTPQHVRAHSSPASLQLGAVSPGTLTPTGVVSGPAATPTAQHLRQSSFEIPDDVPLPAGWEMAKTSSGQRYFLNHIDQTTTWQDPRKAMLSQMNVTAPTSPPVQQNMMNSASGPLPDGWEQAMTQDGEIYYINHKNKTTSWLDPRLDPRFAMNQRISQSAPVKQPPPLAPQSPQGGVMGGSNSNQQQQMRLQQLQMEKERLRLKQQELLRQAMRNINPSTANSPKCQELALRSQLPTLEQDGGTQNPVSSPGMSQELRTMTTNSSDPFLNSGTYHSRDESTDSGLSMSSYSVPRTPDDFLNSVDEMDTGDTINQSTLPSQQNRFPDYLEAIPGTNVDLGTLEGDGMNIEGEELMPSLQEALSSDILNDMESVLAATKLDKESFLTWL
UniProt P40763: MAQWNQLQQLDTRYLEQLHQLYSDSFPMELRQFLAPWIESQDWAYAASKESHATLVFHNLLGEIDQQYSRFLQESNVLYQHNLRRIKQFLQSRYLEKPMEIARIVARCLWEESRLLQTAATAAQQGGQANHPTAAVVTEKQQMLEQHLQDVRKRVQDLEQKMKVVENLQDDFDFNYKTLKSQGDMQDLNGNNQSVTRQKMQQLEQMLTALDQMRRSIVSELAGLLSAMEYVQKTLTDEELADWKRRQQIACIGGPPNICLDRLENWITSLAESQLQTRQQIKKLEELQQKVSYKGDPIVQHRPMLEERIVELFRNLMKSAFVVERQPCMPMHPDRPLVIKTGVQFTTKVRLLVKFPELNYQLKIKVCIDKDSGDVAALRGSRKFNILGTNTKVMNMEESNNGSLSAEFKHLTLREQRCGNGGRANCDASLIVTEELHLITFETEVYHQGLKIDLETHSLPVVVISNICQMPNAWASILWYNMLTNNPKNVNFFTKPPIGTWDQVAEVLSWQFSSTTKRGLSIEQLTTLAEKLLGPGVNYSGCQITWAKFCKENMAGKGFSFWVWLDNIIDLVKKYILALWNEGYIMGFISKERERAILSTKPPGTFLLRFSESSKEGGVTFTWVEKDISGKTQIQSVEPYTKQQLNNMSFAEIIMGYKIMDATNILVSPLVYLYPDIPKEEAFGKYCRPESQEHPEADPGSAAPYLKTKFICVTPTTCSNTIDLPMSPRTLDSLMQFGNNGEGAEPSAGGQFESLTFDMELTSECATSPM

Assays:
[1] = biological target: HA-tagged TAZ (wild type) (UniProt Q9GZV5); assay: co-IP; HA-tagged YAP or TAZ derivatives co-expressed with FLAG-tagged STAT3 or JUNB in 293T cells for 2 days; IP with anti-HA antibody or control IgG, Dynabead protein G; co-IP buffer 50 mM Tris pH 7.5, 100 mM NaCl, 1.5 mM EGTA, 0.1% Triton X-100; 4°C overnight
[2] = biological target: His-tagged recombinant TAZ (UniProt Q9GZV5); assay: co-IP; in vitro, pairs of E. coli-generated His-tagged recombinant proteins; co-IP procedure similar to that for lysates; western blot of input (10%) and IP; both purified
[3] = biological target: TAZ (human (endogenous in MCF-10A-ER-Src)) (UniProt Q9GZV5); assay: co-IP; endogenous proteins in nucleoplasm and chromatin fractions of non-transformed (ethanol) and transformed (tamoxifen) MCF-10A-ER-Src cells; antibodies against the indicated proteins or IgG control, Dynabead protein G; co-IP buffer 50 mM Tris pH 7.5, 100 mM NaCl, 1.5 mM EGTA, 0.1% Triton X-100; 4°C overnight; co-IP in general more efficient in transformed cells
[4] = biological target: TAZ (human (endogenous in MCF-10A-ER-Src)) (UniProt Q9GZV5); assay: co-IP; endogenous proteins in the cytoplasm fraction of non-transformed (ethanol) and transformed (tamoxifen) MCF-10A-ER-Src cells; antibodies against the indicated proteins or IgG control, Dynabead protein G; co-IP buffer 50 mM Tris pH 7.5, 100 mM NaCl, 1.5 mM EGTA, 0.1% Triton X-100; 4°C …
[5] = biological target: YAP (human (endogenous in MCF-10A-ER-Src)) (UniProt P46937); assay: as above

binding [1]: binds
Substance: FLAG-tagged STAT3 (from UniProt P40763 1-770)

binding [2]: binds
Substance: His-tagged recombinant STAT3 (from UniProt P40763 1-770)

binding [3]: binds
Substance: STAT3 (from UniProt P40763 1-770)
binding [4]: no binding (condition: cytoplasm fraction)
binding [5]: no binding (condition: cytoplasm fraction)
